In one experiment the target is T1, human OX40 on cells (human, UniProt P43489 29-277).
T1 construct: whole, on cells
T1 sequence (looked up): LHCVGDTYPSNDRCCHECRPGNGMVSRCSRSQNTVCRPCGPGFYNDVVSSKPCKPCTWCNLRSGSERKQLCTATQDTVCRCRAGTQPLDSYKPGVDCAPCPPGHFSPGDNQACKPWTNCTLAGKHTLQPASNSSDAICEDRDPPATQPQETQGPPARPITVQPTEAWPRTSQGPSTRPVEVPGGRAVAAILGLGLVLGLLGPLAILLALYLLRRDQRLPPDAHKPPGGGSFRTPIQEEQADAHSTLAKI
Nature of the experiment: flow cytometry on activated human PBMC, OX40+ CD4+ or CD8+ T cells.

For experiment [1], the target named is T2, human fibroblast activation protein (FAP) on cells (human, UniProt Q12884 1-760).
T2 construct: also called human FAP; huFAP
Nature of the experiment: flow cytometry on WM-266-4 cells.

B1: monovalent FAP(28H1) targeted split trimeric OX40 ligand Fc (kih) fusion containing CH-CL cross with charged residues (construct 6.1) (Fc fusion)
chain 1: QVSHRYPRIQSIKVQFTEYKKEKGFILTSQKEDEIMKVQDNSVIINCDGFYLISLKGYFSQEVDISLHYQKDEEPLFQLKKVRSVNSLMVASLTYKDKVYLNVTTDNTSLDDFHVNGGELILIHQNPGEFCVLGGGGSGGGGSQVSHRYPRIQSIKVQFTEYKKEKGFILTSQKEDEIMKVQDNSVIINCDGFYLISLKGYFSQEVDISLHYQKDEEPLFQLKKVRSVNSLMVASLTYKDKVYLNVTTDNTSLDDFHVNGGELILIHQNPGEFCVLGGGGSGGGGSRTVAAPSVFIFPPSDRKLKSGTASVVCLLNNFYPREAKVQWKVDNALQSGNSQESVTEQDSKDSTYSLSSTLTLSKADYEKHKVYACEVTHQGLSSPVTKSFNRGE[no letters for human IgG1 Fc with changes]
chain 2: QVSHRYPRIQSIKVQFTEYKKEKGFILTSQKEDEIMKVQDNSVIINCDGFYLISLKGYFSQEVDISLHYQKDEEPLFQLKKVRSVNSLMVASLTYKDKVYLNVTTDNTSLDDFHVNGGELILIHQNPGEFCVLGGGGSGGGGSASTKGPSVFPLAPSSKSTSGGTAALGCLVEDYFPEPVTVSWNSGALTSGVHTFPAVLQSSGLYSLSSVVTVPSSSLGTQTYICNVNHKPSNTKVDEKVEPKSC
heavy: EVQLLESGGGLVQPGGSLRLSCAASGFTFSSHAMSWVRQAPGKGLEWVSAIWASGEQYYADSVKGRFTISRDNSKNTLYLQMNSLRAEDTAVYYCAKGWLGNFDYWGQGTLVTVSSASTKGPSVFPLAPSSKSTSGGTAALGCLVKDYFPEPVTVSWNSGALTSGVHTFPAVLQSSGLYSLSSVVTVPSSSLGTQTYICNVNHKPSNTKVDKKVEPKSCDKTHTCPPCPAPEAAGGPSVFLFPPKPKDTLMISRTPEVTCVVVDVSHEDPEVKFNWYVDGVEVHNAKTKPREEQYNSTYRVVSVLTVLHQDWLNGKEYKCKVSNKALGAPIEKTISKAKGQPREPQVCTLPPSRDELTKNQVSLSCAVKGFYPSDIAVEWESNGQPENNYKTTPPVLDSDGSFFLVSKLTVDKSRWQQGNVFSCSVMHEALHNHYTQKSLSLSPGK
light: EIVLTQSPGTLSLSPGERATLSCRASQSVSRSYLAWYQQKPGQAPRLLIIGASTRATGIPDRFSGSGSGTDFTLTISRLEPEDFAVYYCQQGQVIPPTFGQGTKVEIKRTVAAPSVFIFPPSDEQLKSGTASVVCLLNNFYPREAKVQWKVDNALQSGNSQESVTEQDSKDSTYSLSSTLTLSKADYEKHKVYACEVTHQGLSSPVTKSFNRGEC
notes: also called FAP-OX40L; FAP targeted OX40 ligand Fc (kih) construct
Take B1: the values for the EC50 (with human OX40 on cells; in experiment [1]) were 0.15 nM and 6.9 nM, respectively.

The values above are taken from patent US20250101135A1 (Hoffmann-La Roche, published 2025).
